Reference: a collection of fitness landscapes (doi:10.1016/j.celrep.2020.107928)
In all, about 81,000 sequences were measured (“one-hybrid fitness for binding NBS DNA”: median about -0.1, highest 2% from about 0.36 on). Some of the results follow.

B1: Caulobacter ParB omega fusion; a variant is named by its letters at X, in order, B8GW30 (parent)
chain: MESVVVGEPGMSEGRRGLGRGLSALLGEVDAAPAQAPGEQLGGSREAPIEILQRNPDQPRRTFREEDLEDLSNSIREKGVLQPILVRPSPDTAGEYQIVAGERAWRAAQRAGLKTVPIMVRELDDLAVLEIGIIENVQRADLNVLEEALSYKVLMEKFERTQENIAQTIGKSXSHVANXMRLLXLPDEVQSYLVSGELTAXHARAIAAAADPVALAKQIIEGGLSVRETEALARKAPNLSAGKSKGGRPPRVKDTDTQALESDLSSVLGLDVSIDHRGSTGTLTITYATLEQLDDLCNRLTRGI

Variants of: B1
Experiment: one-hybrid fitness for binding NBS DNA (the Noc-binding site; scaled: cognate 1, non-cognate 0); higher = stronger binding
Settings: with NBS DNA site
Outline: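 Values were rescaled so that cognate is 1 and non-cognate is 0. Each is a fitness, the log change in a variant's read ratio to wild type from Illumina reads of plasmids before and after selection, with three replicate libraries pooled and variants under 10 reads dropped. Selection of the Caulobacter ParB libraries, four specificity codons randomised, used E. coli USO with a HIS3 reporter, site 19 bp from the promoter, on M9-minus-histidine with 0.1 mM IPTG and 5 mM 3-AT for 48 hours at 37°C.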

Variant	one-hybrid fitness for binding NBS DNA
LTSC	≤ 0.2
KYSS	≤ 0.2
TPPY	≤ 0.2
GYPY	≤ 0.2
PNKW	≤ 0.2
SVYS	≤ 0.2
LEMF	≤ 0.2
ASFL	≤ 0.2
LDDD	≤ 0.2
FSFV	≤ 0.2
VLNT	≤ 0.2
MGLW	≤ 0.2
GLQD	≤ 0.2
GAKV	≤ 0.2
TWIR	≤ 0.2
VNPV	≤ 0.2
IMST	≤ 0.2
DGHC	≤ 0.2
SRDT	≤ 0.2
KCLV	≤ 0.2
RSMK	≤ 0.2
LQHG	≤ 0.2
NDHG	≤ 0.2
TPIC	≤ 0.2

Variant	one-hybrid fitness for binding NBS DNA
LQRL	≤ 0.2
STCT	≤ 0.2
RYAF	≤ 0.2
RLSF	≤ 0.2
DGKS	≤ 0.2
CGSK	≤ 0.2
MQNW	≤ 0.2
QQDG	≤ 0.2
NFVA	≤ 0.2
VEVS	≤ 0.2
TLQL	≤ 0.2
EPRM	≤ 0.2
VKHI	≤ 0.2
TAKM	≤ 0.2
VHVA	≤ 0.2
DRRT	≤ 0.2
RWTK	≤ 0.2
YRCS	≤ 0.2
TDTR	≤ 0.2
DESL	≤ 0.2
DEPV	≤ 0.2
MRKV	≤ 0.2
YSQQ	≤ 0.2
GAVI	≤ 0.2

Variant	one-hybrid fitness for binding NBS DNA
CVPI	≤ 0.2
KSLN	≤ 0.2
NGKK	≤ 0.2
QFTG	≤ 0.2
ESIS	≤ 0.2
IRNV	≤ 0.2
QQYN	≤ 0.2
HTAP	≤ 0.2
YHAT	≤ 0.2
PQRV	≤ 0.2
SQPV	≤ 0.2
RIGC	≤ 0.2
TDLG	≤ 0.2
LMYT	≤ 0.2
YHLP	≤ 0.2
DTSR	≤ 0.2
TGAK	≤ 0.2
TPSD	≤ 0.2
VPWV	≤ 0.2
IPRH	≤ 0.2
CNRQ	≤ 0.2
DLET	≤ 0.2
RHEW	≤ 0.2
QNIF	≤ 0.2

Variant	one-hybrid fitness for binding NBS DNA
ARAA	≤ 0.2
SKLN	≤ 0.2
FRFG	≤ 0.2
AWRF	≤ 0.2
RSET	≤ 0.2
PNMG	≤ 0.2
KDAT	≤ 0.2
HPSH	≤ 0.2
TWKT	≤ 0.2
DMTT	≤ 0.2
THDP	≤ 0.2
PLKR	≤ 0.2
HSIM	≤ 0.2
DLQC	≤ 0.2
GPHV	≤ 0.2
PTSW	≤ 0.2
CVKG	≤ 0.2
DLEC	≤ 0.2
STHI	≤ 0.2
VWQG	≤ 0.2
YNHC	≤ 0.2
SDDI	≤ 0.2
VKKS	≤ 0.2
EILG	≤ 0.2

Variant	one-hybrid fitness for binding NBS DNA
KSTT	≤ 0.2
THMF	≤ 0.2
PMPD	≤ 0.2
PKCW	≤ 0.2
QHYT	0.359
TWSS	≤ 0.2
FIHS	≤ 0.2
AYPF	≤ 0.2
HPDF	≤ 0.2
AREA	≤ 0.2
YLKA	≤ 0.2
FTTF	≤ 0.2
WYLR	≤ 0.2
KWET	≤ 0.2
PIQY	≤ 0.2
CTHS	≤ 0.2
NSCK	≤ 0.2
PQYN	≤ 0.2
TSMN	≤ 0.2
QGRA	≤ 0.2
PLSA	≤ 0.2
VLCF	≤ 0.2
AIYT	≤ 0.2
LDGT	≤ 0.2

Variant	one-hybrid fitness for binding NBS DNA
PVAG	≤ 0.2
DRPV	≤ 0.2
YPAW	≤ 0.2
PYKP	≤ 0.2
HLRD	≤ 0.2
RHGE	≤ 0.2
YHRG	≤ 0.2
RWSL	≤ 0.2
QVDG	≤ 0.2
CTLY	≤ 0.2
VVTK	≤ 0.2
FPHT	≤ 0.2
AKFR	≤ 0.2
WELG	≤ 0.2
RCRM	0.231
LCSN	≤ 0.2
NGFS	≤ 0.2
KVKP	≤ 0.2
TQKT	≤ 0.2
VQQV	≤ 0.2
VMAT	≤ 0.2
CRVS	≤ 0.2
AMTD	≤ 0.2
LLTV	≤ 0.2

Variant	one-hybrid fitness for binding NBS DNA
TSLQ	≤ 0.2
GMLH	0.243
RQWH	≤ 0.2
VHRF	≤ 0.2
DYST	≤ 0.2
TNNA	≤ 0.2
EHCN	≤ 0.2
QRAK	0.373
IGTF	≤ 0.2
ENHS	≤ 0.2
MDQG	≤ 0.2
VESR	≤ 0.2
LSRQ	≤ 0.2
WQLS	≤ 0.2
YSTV	≤ 0.2
RVHC	≤ 0.2
AFWG	≤ 0.2
LKEL	≤ 0.2
LMIC	≤ 0.2
PNKD	≤ 0.2
WNMP	≤ 0.2
HCAG	≤ 0.2
RFKH	≤ 0.2
RLIW	≤ 0.2

Variant	one-hybrid fitness for binding NBS DNA
QSMT	0.368
GNMT	≤ 0.2
MTIT	≤ 0.2
KIDL	≤ 0.2
QTHL	≤ 0.2
APHN	≤ 0.2
RSNY	≤ 0.2
LPAT	≤ 0.2
ANRQ	≤ 0.2
NHII	≤ 0.2
PLVS	≤ 0.2
EDPV	≤ 0.2
VWTR	≤ 0.2
SLPS	≤ 0.2
DTIC	≤ 0.2
GVHF	≤ 0.2
RTVK	≤ 0.2
ECKC	≤ 0.2
DVIR	≤ 0.2
ITAA	≤ 0.2
YARD	≤ 0.2
CWHR	≤ 0.2
LVPT	≤ 0.2
RSQD	≤ 0.2

Variant	one-hybrid fitness for binding NBS DNA
LLGM	≤ 0.2
IHKH	≤ 0.2
VMKY	≤ 0.2
KQAS	≤ 0.2
GRTP	≤ 0.2
LIYL	≤ 0.2
VETM	≤ 0.2
NMSA	≤ 0.2
CNFC	≤ 0.2
SRCT	≤ 0.2
MSTS	≤ 0.2
PNYD	≤ 0.2
RSLF	≤ 0.2
RCHN	≤ 0.2
LCEL	≤ 0.2
VDEV	≤ 0.2
LMIG	≤ 0.2
DYGL	≤ 0.2
LIRL	≤ 0.2
HGVA	≤ 0.2
YIQV	≤ 0.2
APKS	≤ 0.2
PDLC	≤ 0.2
RTRV	0.288

Variant	one-hybrid fitness for binding NBS DNA
DVAS	≤ 0.2
GYHW	≤ 0.2
LLYS	≤ 0.2
TEYC	≤ 0.2
VGIS	≤ 0.2
TAWS	≤ 0.2
NNLA	≤ 0.2
QSRR	1
ENKF	≤ 0.2
TDQY	≤ 0.2
AAAM	≤ 0.2
GVGA	≤ 0.2
VDTG	≤ 0.2
GDQT	≤ 0.2
SKAT	≤ 0.2
QRAV	0.424
WEMG	≤ 0.2
AASN	≤ 0.2
LCST	≤ 0.2
MHQV	≤ 0.2
GWGR	≤ 0.2
HKGS	≤ 0.2
PNDL	≤ 0.2
NAKI	≤ 0.2

Variant	one-hybrid fitness for binding NBS DNA
RSYA	≤ 0.2
AANE	≤ 0.2
NCRR	≤ 0.2
NYNG	≤ 0.2
ACLA	≤ 0.2
KVLY	≤ 0.2
GSCC	≤ 0.2
QCGK	≤ 0.2
RMVD	≤ 0.2
TKAD	≤ 0.2
YTHL	≤ 0.2
RINM	≤ 0.2
CYFC	≤ 0.2
RIVQ	≤ 0.2
DFIT	≤ 0.2
GRKM	≤ 0.2
QQEG	≤ 0.2
KLTI	≤ 0.2
GPQC	≤ 0.2
SIDC	≤ 0.2
LCLD	≤ 0.2
MREY	≤ 0.2
YNWS	≤ 0.2
QTAL	≤ 0.2

Variant	one-hybrid fitness for binding NBS DNA
PYPS	≤ 0.2
QPNN	≤ 0.2
FPPC	≤ 0.2
DMIS	≤ 0.2
IYPN	≤ 0.2
SMHA	≤ 0.2
KPQV	≤ 0.2
MIMS	≤ 0.2
DHTC	≤ 0.2
RPQS	≤ 0.2
MYYC	≤ 0.2
SGDF	≤ 0.2
THAK	≤ 0.2
RMER	0.227
TFIM	≤ 0.2
MLFG	0.277
TLND	≤ 0.2
YQLG	≤ 0.2
WSRC	≤ 0.2
TNNF	≤ 0.2
TWKN	≤ 0.2
LHDM	≤ 0.2
TCTL	≤ 0.2
PMRT	≤ 0.2

Variant	one-hybrid fitness for binding NBS DNA
RWDE	≤ 0.2
LMTH	≤ 0.2
QDKR	0.32
NLQG	≤ 0.2
PRTI	≤ 0.2
TQDL	≤ 0.2
WCKC	≤ 0.2
PSEW	≤ 0.2
SYTS	≤ 0.2
YKAY	≤ 0.2
KNER	≤ 0.2
VRDH	≤ 0.2
TRRM	≤ 0.2
YAYS	≤ 0.2
MYWR	≤ 0.2
FDVS	≤ 0.2
QVCP	≤ 0.2
SCKV	≤ 0.2
